Data as given in the supplement of paper PMC12217912.
This is one part of the list. The full chains were built here from the parent and the listed change. Values near 0.05 are background.

B1: TEV protease; numbered along this chain (parent)
chain: MGESLFKGPRDYNPISSSICHLTNESDGHTTSLYGIGFGPFIITNKHLFRRNNGTLVVQSLHGVFKVKDTTTLQQHLVDGRDMIIIRMPKDFPPFPQKLKFREPQREERICLVTTNFQTKSMSSMVSDTSCTFPSGDGIFWKHWIQTKDGQCGSPLVSTRDGFIVGIHSASNFTNTNNYFTSVPKNFMELLTNQEAQQWVSGWRLNADSVLWGGHKVFMVKPEEPFQPVKEATQL

Variants of: B1
Assay: raw area under fraction-flipped curve 0-4 h after induction (AUC4h, not background-subtracted), DNA-recorder readout of cleavage of the substrate (dimensionless); higher = more cleavage of the substrate by the protease variant
Conditions: temperature: 34 °C; time window: 0-4 h after rhamnose induction
Procedure: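 In vivo DNA recorder in E. coli TOP10(DE3) ΔrhaA at 34 °C. Each TEVp single-site mutant (parent TEVp 0) is paired with a single-site variant of the 7-mer TEVs (canonical ENLYFQ|S). The substrate sits between flexible linkers in a Bxb1-sfGFP-TEVs-SsrA fusion, so cleavage stabilises Bxb1 and speeds flipping of a recombination array, read by NGS. The value is the raw area under the fraction-flipped curve over 0-4 h after rhamnose induction (AUC4h), with ≥20 reads per time point. It is not background-subtracted; inactive controls average about 0.047.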
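Also: Bxb1 expression induced with 0.2% (w/v) L-rhamnose at OD600 near 0.5, cultures sampled hourly, flipped fraction per protease–substrate barcode pair counted by paired-end Illumina sequencing.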

Variant | area with substrate ENLYCQS | area with substrate ENLYDQS | area with substrate ENLYEQS | area with substrate ENLYHQS | area with substrate ENLYKQS | area with substrate ENLYLQS | area with substrate ENLYMQS | area with substrate ENLYNQS | area with substrate ENLYPQS | area with substrate ENLYTQS | area with substrate ENLYGQS | area with substrate ENLYIQS | area with substrate ENLYQQS | area with substrate ENLYWQS | area with substrate ENLYRQS | area with substrate ENLYSQS | area with substrate ENLYVQS | area with substrate ENLYYQS
Q146N | 0.0863 | 0.0565 | 0.0448 | 0.0643 | 0.0652 | 0.0805 | 0.0854 | 0.0663 | 0.0792 | 0.0779 |  |  |  |  |  |  |  | 
T147Y | 0.0588 | 0.0522 | 0.0225 | 0.0485 | 0.0659 |  | 0.0625 |  | 0.0423 | 0.0639 | 0.0602 | 0.0462 | 0.0779 | 0.0622 |  |  |  | 
K148N | 0.0857 | 0.063 | 0.0715 | 0.0518 | 0.0414 | 0.0702 | 0.0729 | 0.0597 | 0.0662 | 0.0742 | 0.0606 |  |  | 0.0623 | 0.0658 | 0.0858 | 0.0975 | 0.0524
Q151S | 0.0914 |  |  | 0.0543 | 0.0301 |  |  | 0.0726 | 0.0708 | 0.0715 | 0.113 | 0.13 | 0.1 |  | 0.057 |  | 0.126 | 
G153Y | 0.0402 | 0.0413 | 0.0342 |  | 0.0691 |  | 0.046 | 0.0686 | 0.0271 |  |  | 0.0568 | 0.0547 | 0.0272 |  |  |  | 
S158H | 0.0551 | 0.0632 | 0.0584 | 0.0631 | 0.0302 | 0.0465 | 0.0637 | 0.046 | 0.0461 |  | 0.0503 | 0.0567 |  |  | 0.0559 |  | 0.0468 | 
T159E | 0.071 | 0.065 | 0.0674 | 0.0592 |  |  |  | 0.0584 | 0.0711 |  | 0.0627 |  |  | 0.0774 | 0.0553 | 0.0825 | 0.105 | 
T159G | 0.107 |  | 0.0728 | 0.0642 | 0.0514 | 0.0859 |  | 0.0732 | 0.0765 |  | 0.0791 | 0.134 |  | 0.0934 | 0.0634 |  | 0.0944 | 0.064
T159Y | 0.0571 | 0.0589 | 0.062 |  | 0.0522 | 0.0961 | 0.0954 | 0.0687 | 0.0766 | 0.0759 | 0.0608 | 0.106 |  | 0.0749 |  | 0.0766 | 0.118 | 0.0816
G162H | 0.0589 | 0.0502 | 0.0643 | 0.0632 | 0.0595 | 0.0672 | 0.0747 | 0.0677 |  |  | 0.0612 | 0.109 | 0.0371 | 0.0732 |  |  | 0.103 | 0.0549
I164L | 0.0794 | 0.0652 | 0.0542 | 0.068 | 0.0618 | 0.078 | 0.071 | 0.0629 | 0.0543 | 0.0728 | 0.058 | 0.118 | 0.0607 | 0.0676 | 0.0186 | 0.0809 | 0.0979 | 0.0683
S169C | 0.0753 | 0.0552 | 0.0582 | 0.0612 | 0.0751 | 0.0762 |  | 0.0568 | 0.072 |  | 0.0569 | 0.107 | 0.0521 | 0.0628 | 0.0513 | 0.0694 | 0.0806 | 0.0667
M188C | 0.0943 | 0.0567 | 0.0789 |  |  |  |  | 0.0577 | 0.0791 |  | 0.0622 |  |  |  | 0.0489 |  | 0.12 | 
E195D | 0.0897 |  | 0.0663 | 0.0834 |  |  | 0.0537 | 0.0672 | 0.0891 |  | 0.0615 |  |  | 0.075 | 0.0578 | 0.0777 | 0.104 | 
A196N | 0.0871 |  | 0.0602 | 0.0736 | 0.073 | 0.071 |  | 0.0643 |  | 0.0696 |  | 0.145 | 0.0638 | 0.0782 | 0.0711 | 0.088 | 0.0958 | 
G202N | 0.054 |  | 0.0661 |  |  | 0.0792 | 0.0762 | 0.0665 |  |  |  |  | 0.061 |  | 0.0574 | 0.0454 | 0.0762 | 0.0616
G202S | 0.0581 | 0.0505 | 0.0629 |  | 0.0776 |  | 0.0667 | 0.0805 | 0.0738 | 0.0741 | 0.0591 | 0.0722 | 0.0622 | 0.0859 |  |  | 0.0725 | 
R204E | 0.108 | 0.0779 | 0.097 | 0.0807 | 0.0218 | 0.0982 |  | 0.0762 |  | 0.0706 |  | 0.151 | 0.0692 | 0.09 |  |  | 0.158 | 0.0717
G214K | 0.0801 |  | 0.0708 |  | 0.0513 |  | 0.0664 | 0.0638 |  | 0.074 | 0.077 | 0.108 | 0.0543 | 0.0621 | 0.0576 |  | 0.117 | 
G214M | 0.06 | 0.055 | 0.0477 | 0.0561 | 0.0812 |  | 0.0572 |  |  | 0.0503 | 0.0554 |  |  |  | 0.06 |  | 0.108 | 
P222G | 0.102 |  | 0.067 | 0.0669 | 0.05 | 0.0716 | 0.0708 | 0.0593 |  | 0.0927 |  | 0.105 | 0.0728 |  | 0.0414 |  | 0.0863 | 
P222M | 0.0902 | 0.0467 | 0.0595 | 0.0636 | 0.0621 |  | 0.0703 | 0.0735 |  | 0.0917 | 0.0622 |  |  | 0.0695 |  | 0.0826 | 0.103 | 0.0619
P222V | 0.0861 | 0.0643 | 0.0597 | 0.0586 | 0.0478 |  |  | 0.0645 | 0.0692 | 0.066 | 0.0607 | 0.101 | 0.0647 | 0.0754 | 0.0593 | 0.0573 |  | 0.0769
Q227M | 0.0887 | 0.0436 | 0.0701 | 0.0694 | 0.0603 | 0.0934 | 0.0847 | 0.0605 | 0.0771 |  | 0.069 | 0.108 | 0.0931 |  |  | 0.0853 |  | 
V229Y | 0.0828 | 0.0467 | 0.0652 | 0.0597 | 0.0617 |  |  | 0.0662 | 0.0649 | 0.0777 | 0.0718 | 0.111 | 0.0661 | 0.0749 | 0.0635 | 0.114 | 0.118 | 0.0523
L235M | 0.105 | 0.0652 | 0.0582 | 0.0569 | 0.0652 | 0.0857 |  | 0.0624 | 0.0507 | 0.0785 | 0.0706 | 0.12 | 0.0737 | 0.0883 | 0.068 |  | 0 | 0.0656
G2Q |  | 0.0603 | 0.0749 | 0.0738 | 0.0693 | 0.0785 |  | 0.062 | 0.0763 | 0.0937 | 0.0666 | 0.123 |  | 0.0629 | 0.07 | 0.0738 | 0.126 | 
